Experimental data reported in the supplement of paper PMC12632987.
Whole data set: some 1,800 sequences, median “median log2 fold change of GCK-ALFA target abundance (FLAG IP / Myc IP barcode read proportion)” near 0.14, cut for the lowest 2% near -0.84. This is one part of the list.

B1: traf2_out_14_149_1244 (protein)
chain: SAEAKLYKAAAELSKKVAEALEEVLKLLDAGKVEEAKKLLEETIKELKEEGKKAGITISEIFVLEHILELLDTDVEKAKAAAKEALERAKSAAEAFESLA
B2: traf2_out_18_167_1847 (protein)
chain: EEEIRKRREELSDRLVELSEVKRAARLALQALETDPSKVPAALAALREKAASIPELQPLVDAAEAALAAGDREGLRATLEKLIEKAQKLMNEVLKEYEAL
B3: traf2_out_17_162_1540 (protein)
chain: SETEEELRRLREELEELEEELRRLEEISKNLETLSKEELTDLLVEASELRRRALELAERLRRLEEETGSEEARRLRERAEEIAERLQRIANEIYKELEKK
B4: traf2_out_20_38_2019 (protein)
chain: SEEEKEKEKLEKLIEHAQAAYDAAEAWIAALRAAGKSVAEIAAAAKERVRALLTAHGLEEEAEELVADIDRVLDSPDAERLIVRILARAETLVFQKELQK
B5: traf2_out_6_3_2516 (protein)
chain: MEESIRKDAETVLENMGITTAEQLKRLVKAEVNAVKKLVSRKDVDEADLAGAESVLNLTRAMVEVAYEKLPDLTEEQKKEMLALIKEAEELVKKKRKELE
B6: traf2_out_11_169_857 (protein)
chain: KEEEKNRKIIEKALELNDEAKEKLKEHALALAKEAGLDVAEVEAIFEKNKNKSLSAVAAALIEWFKSQGKEDEAQAVLEKYEELKEEINKKMTEFLKELE
B7: traf2_out_11_79_930 (protein)
chain: EELLEELRRLLEEAKRKLEELIKKKEAGEITEEEWKKTLEEIDRLLQRAAQLALELGLSDVLVLISEARRHVLLAYSGDLEALKEALKKVEEALELLEKE
B8: traf2_out_20_3_2260 (protein)
chain: EELKKEAKEYLEKAKKLLEEIKPHLPPEDAARAEELLKKAEEAFEKDVSDALVYVSELRRLARARAERARAAGDEELAAKLEELADVLNKLANLLYKIEQ
B9: traf2_out_20_3_2111 (protein)
chain: SELEKELEKKLEEALAKLKEAAKLADPETAKVLKELAKKLEESKSLSPSDRLVVVSEIKRQVLLLQQQAEAAGKTELAKVLAEAADALNKAAGLLMKIIE
B10: traf2_out_11_155_727 (protein)
chain: EARRQAQNEIVDYNLAIGDKLLAVVEAVIARVAERDPAVAAELRAVVARHLRYSATSAARAAIDLLRARGLEAEAAELEAALEAAQKEASKKNKEIEAKL
B11: traf2_out_6_3_2512 (protein)
chain: EEEEERKRNEEALEEAAEMSLETIKIAAETTLKELEKAVEDPNATETDFLAYKSSLNLLLEIMKKHAEKHPEEKEEAEKFIEEMKKKLEELEKEWKKKRA
B12: traf2_out_6_156_2423 (protein)
chain: MKEEILKEAKKKIKEEIKKLAKASEEKKIQYISKIAGAVYRALQRLREAGASVEELKEAVKELKKVAKEEAEKEGLDEDTINLLLGSINAVGEVALREAK
B13: traf2_out_16_104_1407 (protein)
chain: SAATTAAYQAIIAELEAIAEELGRLANKIYKAMETASEEEKKKLSEALVEASELRREALQAAEAARQALATGGDLAAAQAALAKLKAKAKEVKEKAEKLF
B14: traf2_out_5_189_2321 (protein)
chain: SSKEKENEELRERARRLSREASELFNRLIEEGKSYEEMIDELLARVAELPIDDAALFTGIAYSILEGEALAKNDEELLKAAREFRARARALIAARRAAAA
B15: traf2_out_13_95_1070 (protein)
chain: TRELARRINELADRAEERALALLAAAQAELADDPEAVAVLDEAARLAETRGIRAAIALLREAQAAHPEHREAFDALIAELEEIRRELGREVAKLIKEAEE
B16: traf2_out_20_38_2025 (protein)
chain: SEEEEEEKKLEELIKVANDAYDAATAEIAALKAEGKSVEEIAEWAKEKIKEILDKVGLEEEKEELIADVDRVLDSPDALTLIARILARAVAKAKQKELQE
B17: traf2_out_20_3_2141 (protein)
chain: EELEKKLEEELKKAIELLKEAAKLADEETAKKLEKLIKELKESKNLSYEDRLVKLSEIRREVRLLAEEARKAGKEELAKLLEEAAEELNEAMNIVMKIIE
B18: traf2_out_18_167_1877 (protein)
chain: SAELEAEYEKATDELVRLSTIRRWLLRALEALRESREAALAVLRAALAELPDSEVLKEALEVAETESPEALRAFLESKAEELQKKANEAYKKLEELRKKK
B19: traf2_out_11_104_655 (protein)
chain: LTREQAREFNDFAMEARDRAREIAEAVAAELEARGHTEEAARVRALLNDPGAGISSFRNLLEELKPRLDAESRKVADAAIEELRRLQREVSEKLNELLAK
B20: traf2_out_17_162_1559 (protein)
chain: SPLEEEWERLLERLEELERRVRELEERLERLEELSKEEITDLLVEASEVRREALELAERARELEPEIGEERAQELIERAEEIAEEAQRIANILYQRLLEK
B21: traf2_out_17_162_1578 (protein)
chain: EELKKELEELKKKLEELKKKLKEFEKKLPELPKMSYEELTDLLVEVSELKREARELAEKLEELGKKLGEEEIKKLVEEAKEIAEKLQKIANKIYKEIEKK
B22: traf2_out_16_104_1386 (protein)
chain: SAATQAKFDKIIAELEKIAEEAQKLANQIYKLYEKASPEKKTELSDLLVEVSEIKRKALEAAEAARRAQAAGGDPKEAEEELKKLEKELKKAKKQLKELE
B23: traf2_out_11_155_675 (protein)
chain: SRETELNNELVDKMTEINDELKARLDAIAAEAVADHPEHAAEVAAVVEEGRKYSGTTYAGRLEQLFRRLGLEEYAARVAAAREEAQKRANEVLKKIEAEL
B24: traf2_out_11_169_879 (protein)
chain: EEAEKNRKLNDKALELNDEAKEELKKFALELAKKLGLNVEEIEKIFEENKNKSLSYVASELIKYFREKGKEEAAEAILKKYEELKEKINKEFSKFLKELE
B25: traf2_out_14_166_1274 (protein)
chain: MSPEEIAKIKEIADKQLELADEFVERARALIEKHKDRLSPELLARLNALLAQAENRGLRTVYLLLRQMAELAEEAGNEELAEEFRRLAEEAEEKYKELLK
B26: traf2_out_12_187_961 (protein)
chain: SVQEELLEAARAAYRRARRALEELAPTDPAARELLARLDEAWALVERHPELAGDLLVAASAVLRYAQLVREGAPPEEIAAALARARAELDELLEEGRRLE
B27: traf2_out_8_15_2558 (protein)
chain: SLREAARRDLDKLEKASDGDEETLMNFVIGFARGEIRLAEIYLEEGDKEAARNTLAYARALLEEAIERFEALGSPYLPRLRKEAEELRKRIEEIEKRIEE
B28: traf2_out_11_155_687 (protein)
chain: EKEKEINNKLVDEMSEIADAAKAEVRAIAAEAGAAHPEAAAALAATLAATAGYGLSTFAGAMAAAFRALGLDEAAARVEALLAEAQKKMNAAVKKAEAEK
B29: traf2_out_13_95_1170 (protein)
chain: SEEKTKKEREIASEAFDKREEIAEDLKARILALIDDPEAAALMDEVVRNMNRFTVEAAADALQAAFPEKAAEITALRDEALAKMKEIDKETTKKLNEIEE

Biological target: T1, TRAF2, Q12933
T1 chain: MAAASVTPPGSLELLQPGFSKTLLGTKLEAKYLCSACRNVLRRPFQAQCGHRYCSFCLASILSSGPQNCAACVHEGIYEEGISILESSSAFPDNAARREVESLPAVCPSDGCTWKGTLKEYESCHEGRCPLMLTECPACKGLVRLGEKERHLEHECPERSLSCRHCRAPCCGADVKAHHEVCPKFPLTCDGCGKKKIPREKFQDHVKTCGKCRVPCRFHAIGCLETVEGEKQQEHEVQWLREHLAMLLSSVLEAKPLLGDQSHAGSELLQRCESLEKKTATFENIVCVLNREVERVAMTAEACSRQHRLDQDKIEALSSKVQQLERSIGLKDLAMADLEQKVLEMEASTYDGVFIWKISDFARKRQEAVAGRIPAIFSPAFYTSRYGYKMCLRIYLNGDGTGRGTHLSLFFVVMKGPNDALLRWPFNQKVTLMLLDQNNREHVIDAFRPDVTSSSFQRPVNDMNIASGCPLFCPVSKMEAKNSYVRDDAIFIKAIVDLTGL
Assay: median log2 fold change of GCK-ALFA target abundance (FLAG IP / Myc IP barcode read proportion) (log2 ratio); each designed protein is fused to an ALFA-tag nanobody in HEK293 cells to bring the named protein to FLAG-tagged glucokinase (GCK); Myc marks an untargeted standard; higher = target protein stabilised (more abundant)
Details: target protein: 3xFLAG-MCP-GCK-ALFA reporter; HEK293 landing pad (RPLP)
Summary of the method: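 The readout is target abundance, the per-binder median log2 ratio of FLAG to Myc barcode read proportions. It came from HEK293 landing-pad cells carrying a recombined ALFA-nanobody-fused binder library, induced with 2 μg mL^−1 doxycycline and transfected with a plasmid for a FLAG-tagged target and a Myc-tagged standard. After 48 h, lysates were immunoprecipitated with anti-FLAG and anti-Myc, and circular RNA barcodes were reverse transcribed, amplified and sequenced. Each barcode needed a proportion of at least 10^−7 in both replicates and each binder at least 3 barcodes per replicate, a pseudocount of 10^−6 was added, and the replicates were pooled.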

Binder	median log2 fold change
B1	0.249
B2	0.224
B3	0.402
B4	0.0921
B5	-0.56
B6	-0.193
B7	0.072
B8	0.243
B9	0.33
B10	0.0983
B11	0.417
B12	0.0521
B13	-0.265
B14	0.176
B15	-0.334
B16	-0.841
B17	0.362
B18	0.303
B19	0.222
B20	0.0845
B21	0.34
B22	0.166
B23	0.222
B24	-0.034
B25	0.308
B26	-0.376
B27	-0.337
B28	0.176
B29	0.161
